The campaign covered roughly 46,000 compounds. About 60 (0.1%) were called active. Another 3% or so got no clear call; they are omitted. The call rests on the fitted dose curve; in most records, active means well fitted inhibition curve with a large enough effect; inconclusive means small, poorly fitted or top-dose-only effect; inactive means no such curve, though single readings can be large or run the other way. The list shows a part of the results.

This test can be described thus: Primary qHTS assay for Inhibitors of ovarian cancer metastasis using an organotypic tumor microenvironment (TME) model. Further: nearly all actives have a fitted effect of over 65% in size.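 On activity change, negative = inhibition: plate controls were DMSO wells for no effect and tomatine positive control wells for full effect.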 As to conditions: SKOV3ip1-GFP adhesion/invasion on 3D omental model, fluorescence; series mostly up to 45.8 µM; activity change, negative = inhibition: at the top concentration. The method, boiled down:
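Primary human omental fibroblast/mesothelial 3D culture pre-formed 48 h. SKOV3ip1-GFP cells added with compounds (0.36-46 umol/L), incubated 2 h RT/16 h 37 C, fixed; GFP cells quantified at 488/509 nm.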
On the technique in general: qHTS replaces the single test concentration by a dilution series.
For the compound `CC(=Cc1csc(C)n1)[C@@H]1C[C@H]2O[C@@H]2CCC[C@H](C)[C@@H](O)[C@@H](C)C(=O)C(C)(C)[C@@H](O)CC(=O)O1`, the “activity change, negative = inhibition” value was inactive: -13.6%.

Regarding `O=C(COc1cccc(Cl)c1)N1CCN(CCc2ccncc2)CC1`, the “activity change, negative = inhibition” value was inactive: 4.14%.

Take `Cc1ccc(Cn2cccc(C(=O)Nc3cc([N+](=O)[O-])ccc3C)c2=O)cc1`: the compound was classed as inactive.

As to `O=S1(=O)N(Cc2ccccc2)CCCN1Cc1cccc(Cl)c1`, the result was inactive.

As for `Cc1cccc(NC(=O)Cn2cc(C(=O)c3ccccc3)c3ccccc32)c1`, the result was inactive.

On to `O=c1c2ccccc2nc(/C=C\c2ccc(F)cc2)n1-c1ccccc1F`, for which the “activity change, negative = inhibition” value was inactive: 11.1%.

`c1ccc(CCCN2CCN(CCOC(c3ccccc3)c3ccccc3)CC2)cc1`: the “activity change, negative = inhibition” value was inactive: 8.09%.

For `CC(=O)NS(=O)(=O)c1ccc(NC(=O)c2cccn(Cc3ccc(Cl)cc3)c2=O)cc1`, the “activity change, negative = inhibition” value was inactive: 8%.

With `COc1ccc(OCC(=O)N2CCN(Cc3cc(=O)n4nc(-c5ccccc5C)sc4n3)CC2)cc1`, the “activity change, negative = inhibition” value was inactive: 2.03%.

`O=C(CCc1nc(C2=CCN(Cc3cccc(Cl)c3)CC2)no1)Nc1ccccc1F`: the “activity change, negative = inhibition” value is inactive: -2.98%.

For `O=C(Nc1ccon1)c1cccn(Cc2ccccc2)c1=O`, the “activity change, negative = inhibition” value was inactive: -8.38%.

Consider `COc1ccc(/C=C/c2nc3ccccc3c(=O)n2-c2ccc(C)cc2)cc1O`, for which the compound was classed as inactive.

For `Cc1ccc(-c2nc(CN3C(=O)CN=C(c4ccccc4)c4cc(Cl)ccc43)c(C)o2)cc1`, the “activity change, negative = inhibition” value is inactive: -22%.

`Cc1cc(NC(=O)c2cccn(Cc3cccc(Cl)c3)c2=O)no1`: the “activity change, negative = inhibition” value was inactive: -4.3%.

As to `Cc1cccc(-n2c(/C=C/c3cn(C)c4ccccc34)nc3ccccc3c2=O)c1`, the “activity change, negative = inhibition” value was inactive: 1.02%.

`O=C1CC(c2ccc(Br)cc2)c2c(c3ccccc3oc2=O)O1` (stereo unspecified): the “activity change, negative = inhibition” value was inactive: 2.05%.

Turning to `O=c1[nH]c2ccccc2c(=O)n1-c1ccc(Cl)c(Cl)c1`, the “activity change, negative = inhibition” value was inactive: -4.34%.

As to `Cc1cccc(NC(=O)Cn2cc(C(=O)c3ccccc3)c3ccccc32)c1C`, the “activity change, negative = inhibition” value was inactive: -3.37%.

For the compound `Cc1oc(-c2ccc(Cl)cc2)nc1CN1C(=O)CN=C(c2ccccc2)c2ccccc21`, the “activity change, negative = inhibition” value is inactive: 0.984%.

In the case of `CN1[C@H]2CC(O)C[C@H]1[C@H]1O[C@H]12` (stereo partly specified), the “activity change, negative = inhibition” value is inactive: -25%.

For the compound `C[C@H]1CCCC=CC2C[C@H](O)C[C@@H]2[C@H](O)C=CC(=O)O1` (stereo partly specified), the “activity change, negative = inhibition” value was inactive: 5.91%.

As for `O=C(Nc1ccon1)c1cccn(Cc2cccc(Cl)c2)c1=O`, the call was inactive.

As to `O=C1CC(c2c(F)cccc2Cl)c2c(c3ccccc3oc2=O)O1` (stereo unspecified), the “activity change, negative = inhibition” value is inactive: 8.12%.

Turning to `O=c1[nH]c2ccc(Cl)cc2c(N[C@@H]2CN3CCC2CC3)c1-c1nc2ccccc2[nH]1`, the “activity change, negative = inhibition” value is inactive: 39.4%.

Consider `Cc1nnc(NC(=O)c2cccn(Cc3ccccc3F)c2=O)s1`, for which the compound was called inactive.

Consider `O=C(COc1ccc(Cl)cc1)Nc1ccc(Cl)cc1C(=O)c1ccccc1`, for which the “activity change, negative = inhibition” value was inactive: 2.63%.

Consider `Cc1c(C(c2ccc(F)cc2)c2c(O)c3ccccc3oc2=O)c(=O)n(-c2ccccc2)n1C` (stereo unspecified), for which the “activity change, negative = inhibition” value was inactive: -8.12%.

With `CCCSc1nc2ccccc2c(=O)n1-c1ccccc1OC`, the call was inactive.

On to `Cc1cc(C)cc(-n2c(=O)[nH]c3ccccc3c2=O)c1`, for which the call was inactive.

For `CC(=O)N1CC(=O)Nc2ccc(F)cc2C1c1ccccc1` (stereo unspecified), the “activity change, negative = inhibition” value was inactive: -6.47%.

With `CCC12CN3CC(CC)(CN(C1)C3c1ccccn1)C2=O` (stereo unspecified), the “activity change, negative = inhibition” value is inactive: -7.61%.

`CCN1C[C@]2(OC(=O)c3ccccc3NC(C)=O)CC[C@H](OC)[C@@]34[C@H]5CC6[C@@H](OC)C[C@](O)(C(C[C@@H]23)[C@@H]14)[C@@]5(O)[C@@H]6OC`: the “activity change, negative = inhibition” value is inactive: -1.23%.

As for `CC(C)N[C@@H]1CCn2c(=O)[nH]c3cccc(c32)[C@@H]1O`, the “activity change, negative = inhibition” value was inactive: 4.96%.

On to `Cc1nnc(NC(=O)c2cccn(Cc3ccc(Cl)cc3)c2=O)s1`, for which the “activity change, negative = inhibition” value was inactive: -7.77%.

Regarding `Cc1ccc(-n2c(/C=C/c3ccc(Br)s3)nc3ccccc3c2=O)cc1C`, the outcome was inactive.

Consider `COc1ccc(OC)c(NC(=O)Cn2cc(C(=O)c3ccccc3F)c3ccccc32)c1`, for which the result was inactive.

Regarding `c1ccc2c(CN3CCNCC3)cccc2c1`, the “activity change, negative = inhibition” value is inactive: -3.96%.

Turning to `C#CCN(C)[C@H](C)Cc1ccccc1`, the “activity change, negative = inhibition” value was inactive: -18.4%.

With `Cc1ccc(NC(=O)N(Cc2ccc3c(c2)OCO3)C2CCN(Cc3ccccc3)CC2)cc1F`, the “activity change, negative = inhibition” value is inactive: -12.9%.

Consider `COc1ccc(NC(=O)CN2C(=O)C(C)N=C(c3ccccc3F)c3cc(Cl)ccc32)c(OC)c1` (stereo unspecified), for which the “activity change, negative = inhibition” value was inactive: -0.811%.

As to `Cc1cc(C)cc(-n2c(/C=C/c3cccc(F)c3)nc3ccccc3c2=O)c1`, the “activity change, negative = inhibition” value was inactive: -8.54%.

The values above are taken from PubChem BioAssay AID1963576 (National Center for Advancing Translational Sciences (NCATS), 2024).
